# Measurements from the supplement of paper PMC4604168 (melanoma cell lines).
# This is one part of the list. Most values come without repeats; read them as rough.
# Columns and labels:
# Assay in all cases: cell count relative to DMSO control; melanoma cells; higher = more viable cells
# Conditions in all cases: library dose: standard library concentration; 72 h
# SkMel28 = system: SkMel28
# SkMel2 = system: SkMel2
# SkMel30 = system: SkMel30
# SkMel5 = system: SkMel5
# UACC257 = system: UACC257
# UACC62 = system: UACC62
# WM115 = system: WM115
# WM1716 = system: WM1716
# WM3526 = system: WM3526
# 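Note: cells treated in 1,536-well plates, then fixed and DAPI-stained, with nuclei counted from automated high-throughput microscope images.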
Structure (SMILES),cell count (SkMel28),cell count (SkMel2),cell count (SkMel30),cell count (SkMel5),cell count (UACC257),cell count (UACC62),cell count (WM115),cell count (WM1716),cell count (WM3526)
"Cn1cc(C2=C(c3cn(C4CCN(Cc5ccccn5)CC4)c4ccccc34)C(=O)NC2=O)c2ccccc21 [Enzastaurin] + COc1ccc(-c2ccc3c(N4CCOCC4)nc(N4C[C@@H](C)O[C@@H](C)C4)nc3n2)cc1CO [KU0063794] (first compound 4 µM, partner dose 0.1 µM)",60.4%,70.2%,83.7%,61.2%,103%,77%,101%,87%,83.5%
"C[C@]12O[C@H](C[C@]1(O)CO)n1c3ccccc3c3c4c(c5c6ccccc6n2c5c31)CNC4=O [Lestaurtinib] + c1cc(-c2cnn3cc(-c4ccc(OCCN5CCCCC5)cc4)cnc23)ccn1 [Dorsomorphin] (first compound 0.02 µM, partner dose 2 µM)",52.7%,80.7%,93.5%,66.8%,86.6%,70.5%,66.9%,93.5%,77.3%
"C[C@]12O[C@H](C[C@]1(O)CO)n1c3ccccc3c3c4c(c5c6ccccc6n2c5c31)CNC4=O [Lestaurtinib] + COc1ccc(-c2ccc3c(N4CCOCC4)nc(N4C[C@@H](C)O[C@@H](C)C4)nc3n2)cc1CO [KU0063794] (first compound 0.02 µM, partner dose 0.1 µM)",52.5%,84.8%,65.5%,47.1%,87%,63.1%,59.2%,65.1%,52.4%
"N.N.[Cl][Pt][Cl] [cisplatin] + Cc1cc([N+](=O)[O-])ccc1NS(=O)(=O)c1cc(Cl)ccc1Cl [FH535] (first compound 8 µM, partner dose 5 µM)",61.3%,82.1%,91.1%,68.1%,32.3%,98.5%,97.3%,72.6%,73.2%
"Cn1cc(C2=C(c3cn(C4CCN(Cc5ccccn5)CC4)c4ccccc34)C(=O)NC2=O)c2ccccc21 [Enzastaurin] + COc1cc2ncnc(Nc3ccc(Oc4ccccc4)cc3)c2cc1OC [SrcI1] (first compound 4 µM, partner dose 10 µM)",69.2%,99.7%,99.8%,62.9%,74.8%,63.8%,103%,57.6%,85%
"C[C@]12O[C@H](C[C@]1(O)CO)n1c3ccccc3c3c4c(c5c6ccccc6n2c5c31)CNC4=O [Lestaurtinib] + COc1ccc(COc2ccc(Cc3cnc(N)nc3N)cc2OC)cc1 [GW2580] (first compound 0.02 µM, partner dose 5 µM)",76.4%,106%,74.7%,72%,88.8%,83.3%,108%,92.7%,68.9%
"Cn1cc(C2=C(c3cn(C4CCN(Cc5ccccn5)CC4)c4ccccc34)C(=O)NC2=O)c2ccccc21 [Enzastaurin] + Cn1cc(/C=C2\C(=O)Nc3cccnc32)c2ccccc21 [GW441756] (first compound 4 µM, partner dose 2 µM)",80.4%,64.6%,76.3%,57%,91.1%,82%,94.7%,81.5%,76.7%
